# Over roughly 2,900 compounds, “NF-kB SEAP reporter activity, fold change vs agonist alone” has its median near 0.99; the highest 2% begin near 2.6. The list shows a part of the results.
# What was measured:
# [1] = system: RAW-Dual; test: NF-kB SEAP reporter activity, fold change vs agonist alone; cytotoxicity flag (confluency mask): cytotoxic (confluency <70% of control); higher = enhanced NF-kB activity
# How it was run: (§1)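 After 50 nL of library stock was delivered by pin tool to RAW-Dual macrophages (50,000 cells/well, DMEM, 384-well plates), a PRR agonist was added 1 h later and the plates were kept at 37 °C, 5% CO2. Twenty hours later, IRF was read from supernatant by QuantiLuc luminescence and NF-κB by QuantiBlue absorbance at 620 nm. Reporter activity is stated as fold change over agonist-alone wells. Wells with IncuCyte confluency under 70% of agonist controls in both mask sets were counted as cytotoxic.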
# [2] = system: RAW-Dual; test: NF-kB SEAP reporter activity, fold change vs agonist alone; higher = enhanced NF-kB activity; details: library stock concentration (final ~1000-fold dilution): 10 mM
# How it was run: as §1
# [3] = system: RAW-Dual; test: NF-kB SEAP reporter activity, fold change vs agonist alone; cytotoxicity flag (confluency mask): not cytotoxic; higher = enhanced NF-kB activity
# How it was run: as §1
# [4] = agonist: ODN 1826 (TLR9) 0.5 ug/mL
# [5] = agonist: Pam2CSK4 (TLR2/6) 0.1 ug/mL
# [6] = agonist: Pam3CSK4 (TLR2/1) 0.1 ug/mL
# [7] = cytotoxicity flag (confluency mask): cytotoxic (confluency <70% of control), agonist: Imiquimod (TLR7) […]
# [8] = cytotoxicity flag (confluency mask): cytotoxic (confluency <70% of control), agonist: MPLA (TLR4) […]
# [9] = cytotoxicity flag (confluency mask): not cytotoxic, agonist: Imiquimod (TLR7) […]
# [10] = cytotoxicity flag (confluency mask): not cytotoxic, agonist: MPLA (TLR4) […]
smiles,measurement,setting,value
C1=CCOCc2cc(ccc2OCCN2CCCC2)Nc2nccc(n2)-c2cccc(c2)COC1 (library stock concentration (final ~1000-fold dilution): 10 mM),NF-kB SEAP reporter activity,[1]; agonist: LPS (TLR4) 0.1 ug/mL,0.498
same,NF-kB SEAP reporter activity,[1]; [4],0.245
same,NF-kB SEAP reporter activity,[1]; [5],0.176
same,NF-kB SEAP reporter activity,[1]; [6],0.256
C1=CCOCc2cc(ccc2OCCN2CCCC2)Nc2nccc(n2)-c2cccc(c2)COC1,NF-kB SEAP reporter activity,[2]; [7],1.52
same,NF-kB SEAP reporter activity,[2]; [8],0.838
Cc1c(Br)c(Br)c2c3c1nc(N1CCNCC1)n3CCC2.Cl (library stock concentration (final ~1000-fold dilution): 10 mM),NF-kB SEAP reporter activity,[1]; agonist: LPS (TLR4) 0.1 ug/mL,0.39
same,NF-kB SEAP reporter activity,[1]; [4],0.167
same,NF-kB SEAP reporter activity,[1]; [5],0.0751
same,NF-kB SEAP reporter activity,[1]; [6],0.133
Cc1c(Br)c(Br)c2c3c1nc(N1CCNCC1)n3CCC2.Cl,NF-kB SEAP reporter activity,[2]; [7],0.154
same,NF-kB SEAP reporter activity,[2]; [8],0.272
Cc1ccc(Nc2ncc3c(n2)N(C)C(=O)N(c2cc(NC(=O)c4cccc(C(F)(F)F)c4)ccc2C)C3)cn1 (library stock concentration (final ~1000-fold dilution): 10 mM),NF-kB SEAP reporter activity,[3]; agonist: LPS (TLR4) 0.1 ug/mL,0.219
same,NF-kB SEAP reporter activity,[3]; [4],0.2
same,NF-kB SEAP reporter activity,[3]; [5],0.0688
same,NF-kB SEAP reporter activity,[3]; [6],0.129
Cc1ccc(Nc2ncc3c(n2)N(C)C(=O)N(c2cc(NC(=O)c4cccc(C(F)(F)F)c4)ccc2C)C3)cn1,NF-kB SEAP reporter activity,[2]; [9],0.175
same,NF-kB SEAP reporter activity,[2]; [10],0.255
O=C(Oc1ccccc1C(=O)O)c1ccccc1O (library stock concentration (final ~1000-fold dilution): 10 mM),NF-kB SEAP reporter activity,[3]; agonist: LPS (TLR4) 0.1 ug/mL,1.03
same,NF-kB SEAP reporter activity,[3]; [4],0.921
same,NF-kB SEAP reporter activity,[3]; [5],0.775
same,NF-kB SEAP reporter activity,[3]; [6],0.675
O=C(Oc1ccccc1C(=O)O)c1ccccc1O,NF-kB SEAP reporter activity,[2]; [9],0.884
same,NF-kB SEAP reporter activity,[2]; [10],1
COc1c(C)c2c(c(O)c1C/C=C(\C)CCC(=O)O)C(=O)OC2,NF-kB SEAP reporter activity,[2]; [9],0.876
same,NF-kB SEAP reporter activity,[2]; [10],0.948
COc1c(C)c2c(c(O)c1C/C=C(\C)CCC(=O)O)C(=O)OC2 (library stock concentration (final ~1000-fold dilution): 10 mM),NF-kB SEAP reporter activity,[3]; agonist: LPS (TLR4) 0.1 ug/mL,0.417
same,NF-kB SEAP reporter activity,[3]; [4],0.969
same,NF-kB SEAP reporter activity,[3]; [5],0.139
same,NF-kB SEAP reporter activity,[3]; [6],0.705
NS(=O)(=O)c1cc(Cl)c(Cl)c(S(N)(=O)=O)c1,NF-kB SEAP reporter activity,[2]; [9],1.02
same,NF-kB SEAP reporter activity,[2]; [10],0.984
NS(=O)(=O)c1cc(Cl)c(Cl)c(S(N)(=O)=O)c1 (library stock concentration (final ~1000-fold dilution): 10 mM),NF-kB SEAP reporter activity,[3]; agonist: LPS (TLR4) 0.1 ug/mL,0.975
same,NF-kB SEAP reporter activity,[3]; [4],0.998
same,NF-kB SEAP reporter activity,[3]; [5],1.01
same,NF-kB SEAP reporter activity,[3]; [6],1.06
CS(=O)(=O)c1ccc(-c2cnc(N)c(C(=O)Nc3ccccc3)n2)cc1,NF-kB SEAP reporter activity,[2]; [9],1.45
same,NF-kB SEAP reporter activity,[2]; [10],2.21
CS(=O)(=O)c1ccc(-c2cnc(N)c(C(=O)Nc3ccccc3)n2)cc1 (library stock concentration (final ~1000-fold dilution): 10 mM),NF-kB SEAP reporter activity,[3]; agonist: LPS (TLR4) 0.1 ug/mL,4.61
same,NF-kB SEAP reporter activity,[3]; [4],0.67
same,NF-kB SEAP reporter activity,[3]; [5],1.02
same,NF-kB SEAP reporter activity,[3]; [6],1.48
CCOc1cc(CC(=O)NC(CC(C)C)c2ccccc2N2CCCCC2)ccc1C(=O)O (configuration not stated) (library stock concentration (final ~1000-fold dilution): 10 mM),NF-kB SEAP reporter activity,[3]; agonist: LPS (TLR4) 0.1 ug/mL,1.02
same,NF-kB SEAP reporter activity,[3]; [4],0.971
same,NF-kB SEAP reporter activity,[3]; [5],0.889
same,NF-kB SEAP reporter activity,[3]; [6],1.02
CCOc1cc(CC(=O)NC(CC(C)C)c2ccccc2N2CCCCC2)ccc1C(=O)O (configuration not stated),NF-kB SEAP reporter activity,[2]; [9],0.996
same,NF-kB SEAP reporter activity,[2]; [10],1.07
O=C(c1ccc(/C=C/c2n[nH]c3ccccc23)cc1)N1CCNCC1,NF-kB SEAP reporter activity,[2]; [9],0.939
same,NF-kB SEAP reporter activity,[2]; [10],0.965
O=C(c1ccc(/C=C/c2n[nH]c3ccccc23)cc1)N1CCNCC1 (library stock concentration (final ~1000-fold dilution): 10 mM),NF-kB SEAP reporter activity,[3]; agonist: LPS (TLR4) 0.1 ug/mL,0.301
same,NF-kB SEAP reporter activity,[3]; [4],0.251
same,NF-kB SEAP reporter activity,[3]; [5],0.211
same,NF-kB SEAP reporter activity,[3]; [6],0.386
C/C(=C\C(=O)Nc1ccccc1C(=O)O)c1ccc2ccccc2c1 (library stock concentration (final ~1000-fold dilution): 10 mM),NF-kB SEAP reporter activity,[3]; agonist: LPS (TLR4) 0.1 ug/mL,1.1
same,NF-kB SEAP reporter activity,[3]; [4],1.18
same,NF-kB SEAP reporter activity,[3]; [5],0.777
same,NF-kB SEAP reporter activity,[3]; [6],0.793
C/C(=C\C(=O)Nc1ccccc1C(=O)O)c1ccc2ccccc2c1,NF-kB SEAP reporter activity,[2]; [9],1.22
same,NF-kB SEAP reporter activity,[2]; [10],0.986
Cc1ccc(-n2sc(=O)n(Cc3ccc(F)cc3)c2=O)cc1 (library stock concentration (final ~1000-fold dilution): 10 mM),NF-kB SEAP reporter activity,[1]; agonist: LPS (TLR4) 0.1 ug/mL,0.522
same,NF-kB SEAP reporter activity,[1]; [4],0.589
same,NF-kB SEAP reporter activity,[1]; [5],0.504
same,NF-kB SEAP reporter activity,[1]; [6],0.79
Cc1ccc(-n2sc(=O)n(Cc3ccc(F)cc3)c2=O)cc1,NF-kB SEAP reporter activity,[2]; [7],1.07
same,NF-kB SEAP reporter activity,[2]; [8],0.68
Cc1cc(Cl)ccc1OCCCC(=O)NO,NF-kB SEAP reporter activity,[2]; [9],1.35
same,NF-kB SEAP reporter activity,[2]; [10],1.31
Cc1cc(Cl)ccc1OCCCC(=O)NO (library stock concentration (final ~1000-fold dilution): 10 mM),NF-kB SEAP reporter activity,[3]; agonist: LPS (TLR4) 0.1 ug/mL,1.51
same,NF-kB SEAP reporter activity,[3]; [4],0.823
same,NF-kB SEAP reporter activity,[3]; [5],0.939
same,NF-kB SEAP reporter activity,[3]; [6],0.726
CN(C)CCOc1ccc(-c2nc(-c3ccncc3)c(-c3ccc4c(c3)CC/C4=N\O)[nH]2)cc1,NF-kB SEAP reporter activity,[2]; [9],0.946
same,NF-kB SEAP reporter activity,[2]; [10],1.02
CN(C)CCOc1ccc(-c2nc(-c3ccncc3)c(-c3ccc4c(c3)CC/C4=N\O)[nH]2)cc1 (library stock concentration (final ~1000-fold dilution): 10 mM),NF-kB SEAP reporter activity,[3]; agonist: LPS (TLR4) 0.1 ug/mL,5
same,NF-kB SEAP reporter activity,[3]; [4],0.964
same,NF-kB SEAP reporter activity,[3]; [5],1.49
same,NF-kB SEAP reporter activity,[3]; [6],0.882
COc1ccc(-c2oc3c(CC=C(C)C)c(OC4OC(CO)C(O)C(O)C4O)cc(O)c3c(=O)c2OC2OC(C)C(O)C(O)C2O)cc1 (configuration not stated),NF-kB SEAP reporter activity,[2]; [9],0.89
same,NF-kB SEAP reporter activity,[2]; [10],1.13
COc1ccc(-c2oc3c(CC=C(C)C)c(OC4OC(CO)C(O)C(O)C4O)cc(O)c3c(=O)c2OC2OC(C)C(O)C(O)C2O)cc1 (configuration not stated) (library stock concentration (final ~1000-fold dilution): 10 mM),NF-kB SEAP reporter activity,[3]; agonist: LPS (TLR4) 0.1 ug/mL,1.57
same,NF-kB SEAP reporter activity,[3]; [4],0.992
same,NF-kB SEAP reporter activity,[3]; [5],1.14
same,NF-kB SEAP reporter activity,[3]; [6],1.28
O=C1Cc2c([nH]c3ccc(Br)cc23)-c2ccccc2N1 (library stock concentration (final ~1000-fold dilution): 10 mM),NF-kB SEAP reporter activity,[3]; agonist: LPS (TLR4) 0.1 ug/mL,1.86
same,NF-kB SEAP reporter activity,[3]; [4],1.85
same,NF-kB SEAP reporter activity,[3]; [5],1.54
same,NF-kB SEAP reporter activity,[3]; [6],1.65
O=C1Cc2c([nH]c3ccc(Br)cc23)-c2ccccc2N1,NF-kB SEAP reporter activity,[2]; [9],1.42
same,NF-kB SEAP reporter activity,[2]; [10],1.61
CCc1c(O)cc(O)c(C(=O)c2ccc(OCCN3CCOCC3)c(OC)c2)c1CC(=O)N(CCOC)CCOC (library stock concentration (final ~1000-fold dilution): 10 mM),NF-kB SEAP reporter activity,[3]; agonist: LPS (TLR4) 0.1 ug/mL,0.245
same,NF-kB SEAP reporter activity,[3]; [4],0.328
same,NF-kB SEAP reporter activity,[3]; [5],0.239
same,NF-kB SEAP reporter activity,[3]; [6],0.221
CCc1c(O)cc(O)c(C(=O)c2ccc(OCCN3CCOCC3)c(OC)c2)c1CC(=O)N(CCOC)CCOC,NF-kB SEAP reporter activity,[2]; [9],0.27
same,NF-kB SEAP reporter activity,[2]; [10],0.417
Cc1coc2c1C(=O)C(=O)c1c-2ccc2c1CCCC2(C)C,NF-kB SEAP reporter activity,[2]; [9],0.798
same,NF-kB SEAP reporter activity,[2]; [10],0.857
Cc1coc2c1C(=O)C(=O)c1c-2ccc2c1CCCC2(C)C (library stock concentration (final ~1000-fold dilution): 10 mM),NF-kB SEAP reporter activity,[3]; agonist: LPS (TLR4) 0.1 ug/mL,0.59
same,NF-kB SEAP reporter activity,[3]; [4],0.814
same,NF-kB SEAP reporter activity,[3]; [5],0.784
same,NF-kB SEAP reporter activity,[3]; [6],1.03

# From the supplement of paper PMC10037445
